# Out of some 52,000 compounds screened, about 4,300 (8.3%) were called active. No stated cut-off is given here; in the data, active means survival mostly below about 52% (no sharp cut-off); inactive means mostly above about 56%. The list shows a part of the results.
# Test system: DeltatarO mutant
# Assay: growth inhibition of S. aureus wild type versus tarO mutant, primary screen, teichoic acid synthesis inhibitors, RN4220, OD600 (AID 463173)
# Settings: OD600, 18 h, active compounds read low, screened at 18.75 µg/mL (by protocol)
row,Compound,survival
1,COc1ccccc1N1CCN(C(=O)Nc2cn(CC(C)C)c(=O)c3ccccc23)CC1,inactive: 76%
2,CCOCCCNC(=O)c1c(NC(=O)c2cc(=O)c3ccccc3o2)sc2c1CCC2,inactive: 48%
3,O=c1oc2c(CN3CCCC3)c(O)ccc2cc1-c1ccccc1,inactive: 125%
4,CC(C)C(=O)Nc1cccc(C(=O)Nc2nnc(CC(C)(C)C)s2)c1,inactive: 67%
5,CCOC(=O)c1c(C)oc2ncnc(Nc3cc(Cl)ccc3OC)c12,inactive: 70%
6,Cc1ccc2nc(COc3ccccc3NC(=O)COc3ccccc3Cl)cc(=O)n2c1,inactive: 102%
7,Cc1ccc(CNC(=O)C2CCN(S(=O)(=O)c3c(C)noc3/C=C/c3c(C)cc(C)cc3C)CC2)cc1,inactive: 75%
8,CSc1ncc(C(=O)NCc2ccc(C)cc2)c(-c2ccccc2)n1,active: 0%
9,O=C(c1ccc(Br)s1)N(Cc1cccnc1)c1nc2ccc(F)cc2s1,inactive: 83%
10,CCOc1ccccc1NC(=O)CN1C(=O)COc2ccc(S(=O)(=O)N3CCCCC3)cc21,inactive: 91%
11,Cc1ccc2c(c1)c1c(n2CC(O)CN2CCCCC2)C(=O)CCC1 (stereo not drawn),inactive: 78%
12,Cc1ccc(N2C(=O)CSC23C(=O)N(CC(=O)NC2CCCCC2)c2ccccc23)cc1C (stereo not drawn),inactive: 94%
13,Cn1cc(C(c2ccccc2)c2ccc(Cl)s2)c2ccccc21 (stereo not drawn),inactive: 102%
14,CCOC(=O)Cn1c(=O)n(-c2ccccc2OC)c2nc(-c3ccccc3F)nc(C(N)=O)c21,inactive: 72%
15,CCc1ccc(-c2cn3c(n2)SCC3)cc1,inactive: 98%
16,Brc1ccc(NCc2ccco2)cc1,inactive: 96%
17,CCc1nn(CC(=O)NCc2ccc(OC)c(OC)c2)c(=O)c2cc3sc(C)cc3n12,inactive: 71%
18,O=C1CSC(=O)N1Cc1cc2c(cc1Cl)OCO2,inactive: 70%
19,CCOC(=O)c1c(NC(=O)c2cc3nc(-c4ccccc4)cc(C(F)(F)F)n3n2)sc2c1CCC(C)C2 (stereo not drawn),inactive: 55%
20,CCOc1ccc(C(=O)Nc2ccccc2OCc2cc(=O)n3ccccc3n2)cc1,inactive: 119%
21,Cc1cc(C(=O)Nc2cccc(F)c2)c2c(C)nn(-c3cccc(Cl)c3C)c2n1,inactive: 87%
22,Cn1c(CN2CCOCC2)nnc1SCC(N)=O,inactive: 95%
23,CCc1c(C)c2ccc(O)c(CN3CCN(c4ccc(OC)cc4)CC3)c2oc1=O,inactive: 55%
24,CC1CCC(Nc2nnnn2-c2ccccc2)CC1 (stereo not drawn),inactive: 87%

row,Compound,survival
1,Cc1ccccc1CNC(=O)c1ccc(CSc2nc3cccnc3n2Cc2ccccc2)cc1,inactive: 55%
2,O=C(CN1CCC(C(=O)c2ccc(F)cc2)CC1)Nc1ccccc1,inactive: 83%
3,COC(=O)c1ccc(Cn2c(SCc3ccccc3)nc3ccncc32)cc1,active: 45%
4,Cc1ccc(-c2nc(CS(=O)(=O)CC(=O)NCc3ccc(Cl)cc3)c(C)o2)cc1,inactive: 105%
5,CCc1ccc(-n2c(SCc3ccccc3C)nc3[nH]ncc3c2=O)cc1,inactive: 62%
6,CCc1ccc(-c2nn(CC(=O)NCc3ccccc3)c3c2cnc2ccc(C)cc23)cc1,inactive: 69%
7,CC(C)c1ccc(NC(=O)CCS(=O)(=O)c2cccc3nonc23)cc1,inactive: 87%
8,CCCN(C(=O)COc1cc(=O)n(CC)c2ccccc12)c1ccc(C(C)C)cc1,active: -22%
9,CCc1ccc(-n2nc(C)c3c(C(=O)Nc4cc(C)c(Cl)cc4OC)cc(C)nc32)cc1,inactive: 85%
10,CCOc1ccccc1NC(=O)Cn1c(=O)n(-c2ccc(F)cc2)c(=O)c2c3c(sc21)CN(C(C)=O)CC3,inactive: 122%
11,Cc1ccc(CCNC(=O)c2ccc(CNS(=O)(=O)c3ccccc3)cc2)cc1,inactive: 80%
12,O=C(CN1CCSc2ccccc21)N1CCCCC1,inactive: 78%
13,Cc1ccc2cc3c(N)c(-c4nnc(-c5ccccc5)o4)sc3nc2c1,inactive: 94%
14,O=C(Nc1ccc(C(F)(F)F)cc1)C1CCN(c2cnccn2)CC1,inactive: 73%
15,Cc1ccc(CCNC(=O)c2cc(C)nc3c2c(C)nn3-c2ccc(C)cc2)cc1,active: 25%
16,COc1cccc(Cn2c(SCC(=O)N(C)c3ccccc3)nc3ccccc32)c1,active: -4%
17,COc1cccc2cc(-c3csc(-c4ccc(Cl)cc4)n3)c(=O)oc12,inactive: 99%
18,Cc1cc(C)c(C#N)c(S(C)(=O)=O)n1,inactive: 106%
19,CCOc1ccccc1NC(=O)c1c(NCc2cccs2)sc2c1CCCCC2,inactive: 71%
20,Cc1cc(C)nc(SCCC(=O)Nc2ccccc2)n1,inactive: 96%
21,CCOc1ccc(NC(=O)c2c(NC(=O)c3ccccc3F)sc3c2CCC3)cc1,inactive: 155%
22,CC(=O)Nc1ccc(NC(=O)c2cc3sccc3n2Cc2ccc(Cl)cc2)cc1,inactive: 97%
23,CCOC(=O)c1c(NC(=O)/C(C#N)=C/c2ccccc2)sc2c1CCC2,inactive: 52%
24,COc1cc(NC(=O)Cn2cnc3c2c(=O)n(C)c(=O)n3C)c(OC)cc1Cl,inactive: 65%

row,Compound,survival
1,Cc1cc(C)cc(NC(=O)Nc2ccccc2OCc2cc(=O)n3ccccc3n2)c1,inactive: 84%
2,Cc1ccc(-c2nnc(Nc3ccc(OCC(N)=O)cc3)c3ccccc23)cc1S(=O)(=O)N(C)C,inactive: 88%
3,CC(C)(C)c1ccc(C2=NC(C)(C)N(CC(=O)Nc3ccc(F)c(F)c3)C2=O)cc1,inactive: 88%
4,CCc1c(C)sc2c1CCN(C(=O)Nc1cc(Cl)c(OC)cc1OC)C2c1ccccc1 (stereo not drawn),inactive: 63%
5,Cc1ccc(C)c2nc(SCC(=O)OC(C)C)c(C#N)cc12,inactive: 92%
6,COc1cccc2c1Oc1ncccc1N(C(=O)CCC(=O)NC(C)C)C2,inactive: 89%
7,C#CCn1cnc2c(cnn2-c2ccc(F)cc2)c1=O,inactive: 98%
8,CCC(=O)N1CCc2cc(Br)cc(S(=O)(=O)CCC(=O)Nc3ccc(C)c(F)c3)c21,inactive: 86%
9,O=C(COc1ccccc1)NCC1CCCO1 (stereo not drawn),inactive: 101%
10,COc1ccc2c(c1)CC(C(=O)NCCCN1CCN(c3ccccc3F)CC1)CO2 (stereo not drawn),inactive: 87%
11,COc1ccc2c(c1)-c1nc(/N=C/c3ccc(C)o3)sc1CC2,inactive: 73%
12,Cc1[nH]c2ccc(-c3nnc(SCc4ccc(F)cc4)o3)cc2c1C,inactive: 94%
13,CCn1c(C)c(C)c2cc(C(=O)NCc3ccc(OC)cc3OC)ccc21,inactive: 70%
14,CCN(CC)S(=O)(=O)c1ccc(NC(=O)c2c(C)oc3ncnc(N4CCOCC4)c23)cc1,inactive: 100%
15,CCOC(=O)/C(C#N)=C/c1ccc(N2CCCCC2)o1,inactive: 73%
16,COc1ccc(-c2ccc(CCC(=O)O)n2CC(=O)Nc2cccc(Cl)c2C)cc1,inactive: 46%
17,COc1ccc(CNC(=O)CCc2c(C)nc3nc(CNC(=O)OC(C)(C)C)nn3c2C)cc1,inactive: 85%
18,CC(=O)c1cccc(Nc2nn(-c3ccc(OC(F)(F)F)cc3)nc2C(C)=O)c1,inactive: 91%
19,O=C(CN1C(=O)CC(c2ccco2)Sc2ccccc21)Nc1ccc(Br)cc1 (stereo not drawn),inactive: 75%
20,CCCNC(=O)C1CCN(Cc2cc3ccccc3n2Cc2ccccc2)CC1,inactive: 87%
21,COc1cc(C)ccc1OCCSc1nc2ccc(NC(=O)c3ccc(C)cc3)cc2s1,inactive: 71%
22,O=C1CN(C(=O)Nc2ccccc2Cl)C(c2ccccc2)c2c(sc3c2CCCC3)N1 (stereo not drawn),inactive: 73%
23,Cc1nn(-c2ccccc2)c2c1N(CCCC(=O)NCc1ccccc1)C(=O)CS2,inactive: 99%
24,COc1ccc(NC(=O)C(C)Sc2cc(-c3ccccc3)nc(C)n2)cc1Cl (stereo not drawn),inactive: 55%

row,Compound,survival
1,CCNC(=S)N1CCC(C(N)=O)CC1,inactive: 99%
2,COc1ccc(S(=O)(=O)N(C)C2CCCCC2)cc1,inactive: 85%
3,CC[n+]1c(C)sc2sc3ccccc3c21,inactive: 68%
4,COc1ccc(-c2cc(C(=O)NCCc3ccc(OC)c(OC)c3)c3ccccc3n2)cc1,active: 48%
5,COc1ccc(-n2ccn(Cc3ccccc3C)c(=O)c2=O)cc1,inactive: 106%
6,Cc1ccc(OCC(=O)Nc2ccc3[nH]c(=O)sc3c2)cc1,inactive: 93%
7,CCc1cc2c(cc3c(=O)n(CC(=O)NC4CCCCC4)ncn32)s1,inactive: 88%
8,COc1cccc(C(c2sc3nc(-c4ccco4)nn3c2O)N2CCN(c3ccccc3F)CC2)c1 (stereo not drawn),inactive: 74%
9,CCOc1ccc(N(C(C)C(=O)NCCSc2ccc(C)cc2)S(C)(=O)=O)cc1 (stereo not drawn),inactive: 45%
10,CCCCn1cc(S(=O)(=O)c2ccc(CC)cc2)c(=O)c2cc(F)c(N3CCOCC3)cc21,inactive: 83%
11,Cc1cc(C)cc(NC(=O)C(=O)NCC(c2cccnc2)N2CCN(c3ccccc3)CC2)c1 (stereo not drawn),inactive: 56%
12,COC(=O)c1ccc(Cn2nc(-c3ccc(C)cc3)ccc2=O)cc1,inactive: 133%
13,Nc1ccccc1N1CCN(C(=O)c2ccccc2)CC1,inactive: 103%
14,Oc1ccc(-c2cccc(-c3ccc(O)cc3)c2)cc1,active: 27%
15,O=C(COc1ccc(F)cc1)Nc1ccccc1OCc1cc(=O)n2ccccc2n1,inactive: 89%
16,COc1ccc(-c2noc(-c3ccc(NC4CCCCC4)c([N+](=O)[O-])c3)n2)cc1,inactive: 45%
17,CCc1nn2c(=O)cc(COC(=O)c3ccc(NC(=O)C4CCCCC4)cc3)nc2s1,inactive: 81%
18,CCC1CCc2nc3sc(C(=O)Nc4cccc(C(F)(F)F)c4)c(N)c3cc2C1 (stereo not drawn),inactive: 133%
19,CCCc1cc(=O)oc2cc(C)c3c(C(C)(C)C)coc3c12,inactive: 88%
20,COc1cccc(NC(=O)c2ccc3[nH]c(C)cc(=O)c3c2)c1,inactive: 102%
21,COc1ccc(S(=O)(=O)Nc2cc3c(cc2N2CCOCC2)n(C)c(=O)n3C)cc1,inactive: 126%
